Source: the RNAGym collection of RNA variant scans (doi:10.1093/nar/gkz1192)
Read counts are not given, so values of variants with three or more changes are uncertain.

B1: CPEB3 Ribozyme (parent)
chain: UAACAGGGGGCCACAGCAGAAGCGUUCACGUCGCAGCCCCUGUCAGAUUCUGGUGAAUCUGCGAAUUCUGCUGUAUAUCUC

Variants of: B1
Assay: self-cleavage, relative activity (ratio to wild type); higher = more cleavage; in vitro, sequencing
Outline: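 CPEB3 self-cleaving ribozyme mutant libraries were made by rounds of error-prone PCR, barcoded, and transcribed in vitro with T7 RNA polymerase for 5 hours at 37°C. Cleavage occurred during transcription and a 15 min DNase I step before EDTA stop. RNAs were reverse transcribed with template switching and Illumina-sequenced, with DNA sequencing mapping barcodes to variants. Relative activity is the variant's cleaved/total read fraction divided by wild type's (minimum 5 reads), averaged across three batches.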

| Variant | self-cleavage |
| --- | --- |
| A3U U26A U48A U54A A56G | 0.15 |
| A3U U26C A28G U31A G33C U41A U54C | 0.07 |
| A3U U26C A35U U43A U78A | 0.44 |
| A3U U26C A35U U49C U67C U80C | 0.25 |
| A3U U26C C39A C44G | 0.11 |
| A3U U26C U41A | 0.11 |
| A3U U26C U58A U76C | 0.2 |
| A3U U31A U41A U54C U80C | 0.21 |
| A3U U31C U58C U69A | 0.26 |
| A3U U41A U51C | 0.27 |
| A3U U41C A56G | 0.68 |
| A3U U43C G55A | 0.45 |
| A3U U43C U54C | 0.48 |
| A3U U43C U69G | 0.26 |
| A3U U48A U72A U74C | 0.29 |
| A3U U48C U58C G63A A64C U80C | 0.09 |
| A3U U49C A57G U67C | 0.57 |
| A3U U49C U51C | 0.39 |
| A3U U54C A56G A57U U60C U69C | 0.29 |
| A3U U54C U67C | 0.43 |
| A3U U54C U69A | 0.7 |
| A3U U60C C71U | 0.42 |
| A3U U60C U74C U80C | 0.74 |
| A3U U69C U72C A77G | 0.45 |

| Variant | self-cleavage |
| --- | --- |
| C4A A5C A45G U54C | 0.81 |
| C4A A5U A18U A56G C62U | 0.28 |
| C4A A13G A35G U43C U51A U54C A65U | 0.06 |
| C4A A15G A20G C27U U41C A45G U51A | 0.09 |
| C4A A15G A57G | 0.64 |
| C4A A20U A35U U41A A64G U67C | 0.08 |
| C4A A56U A64G U72C U76C | 0.84 |
| C4A C11G U49C A56G | 0.5 |
| C4A C11U U43C A64G | 0.13 |
| C4A C23A G46C | 0.12 |
| C4A C32U U60C A64U C71U A77G | 0.05 |
| C4A G8A U25A A57U U69A | 0.06 |
| C4A U25C A35G C40A U41A U54C A65U | 0.13 |
| C4A U26A A28U C38A U43C G61A U80C | 0.12 |
| C4A U26A U31C U58A C71A | 0.09 |
| C4A U31G U58C | 0.39 |
| C4A U41C U49C U78C | 0.76 |
| C4A U43C U51G | 1.07 |
| C4A U51C U58C | 0.58 |
| C4A U51C U69A A75G | 0.75 |
| C4G A5G U54C U76C | 0.78 |
| C4G A5U A57U | 0.71 |
| C4G A5U U43A | 1.14 |
| C4G A15G G19U U31A U58C U67A | 0.13 |

| Variant | self-cleavage |
| --- | --- |
| C4G A18G G24U U54C | 0.08 |
| C4G A20G G53A U67A U69G | 0.26 |
| C4G C23G A28G A56G | 0.08 |
| C4G G7U A21G A47G U49C G63U | 0.05 |
| C4G U25G U72A | 0.12 |
| C4G U31C U76A | 1.06 |
| C4G U41A G46A A75G | 0.04 |
| C4G U41C U69A C71U U78C | 0.34 |
| C4G U69A U72C U76C | 0.52 |
| C4G U69A U78C | 1.05 |
| C4U A5G G42A A45G U60C U67C U78C | 0.19 |
| C4U A5U U26A U31C C39A G46A | 0.12 |
| C4U A13C U31C U51A U74G U76C | 1.07 |
| C4U A13G A35U | 0.84 |
| C4U A13G G46A U54C | 0.14 |
| C4U A15G A35G U48C U67C U78A | 0.17 |
| C4U A15G U66C | 0.57 |
| C4U A15U U43A G52U A57G A75G | 1.27 |
| C4U A18G G19A U78C | 0.17 |
| C4U A18G U51C A56G | 0.62 |
| C4U A20G U25C A45G | 0.3 |
| C4U A20G U31C | 0.61 |
| C4U A20U A56G U58A U72C | 0.18 |
| C4U A20U U25G | 0.57 |

| Variant | self-cleavage |
| --- | --- |
| C4U A21C G22U U31C C38A U41G U74C | 0.17 |
| C4U A21G A28G | 0.5 |
| C4U A21G A47C A57G A65G U67C U72C | 0.07 |
| C4U A21G U31C U80C | 0.39 |
| C4U A28G A35G U80A | 1.18 |
| C4U A35G A64U | 1.08 |
| C4U A35G C37A U51C U66C U67C | 0.16 |
| C4U A35U A57G U58A U72C | 0.27 |
| C4U A35U U41A U60C U72C | 0.14 |
| C4U A45G U72G | 1.03 |
| C4U A56U U58A | 0.61 |
| C4U A57G U74C | 0.88 |
| C4U A65G U69A U72A | 0.52 |
| C4U C11A C39G A47G U54C | 0.08 |
| C4U C12A C29U A45G G61A U76A | 0.72 |
| C4U C12U A13G U25C U72A A75U U80C | 0.09 |
| C4U C12U A21G U31C U48C U74A U78A | 0.23 |
| C4U C29U U67A | 0.4 |
| C4U C34U U54A | 0.63 |
| C4U C38U U67C | 0.2 |
| C4U G6A A18U A64G A75U | 0.08 |
| C4U G6A A20G A77G | 0.29 |
| C4U G6C A18G C38A U41C U54A | 0.09 |
| C4U G6U U58A U60G U69C | 0.1 |

| Variant | self-cleavage |
| --- | --- |
| C4U G7A A18U A21G G42A A56U | 0.07 |
| C4U G7A A21G U25C U26A A64G U69A | 0.12 |
| C4U G8A C12G G33C C40A U54A A77G | 0.03 |
| C4U G9C A15G A56G U60C U72C | 0.04 |
| C4U G9C A35U | 0.29 |
| C4U G10U U26A U51G U78C | 0.05 |
| C4U G30A U43C | 0.49 |
| C4U G30U A35G U80C | 0.16 |
| C4U G30U U41A | 0.29 |
| C4U U25A C32U U43C | 0.13 |
| C4U U25A U41A | 0.47 |
| C4U U25C A45G A65G G73A | 0.09 |
| C4U U25C A45G U51G U69C | 0.16 |
| C4U U25C U26G A56U | 0.29 |
| C4U U25C U66C U80A | 0.18 |
| C4U U26A U41A U43A U60C U72C | 0.23 |
| C4U U31C U74C | 1.24 |
| C4U U41A A64G | 0.26 |
| C4U U41A U43A U58A | 0.16 |
| C4U U41C U60A | 0.91 |
| C4U U49C U54C U80A | 0.63 |
| C4U U51C A65G | 0.78 |
| C4U U54C A65U U66A U69A | 0.41 |
| C4U U54G U60A U67C | 0.31 |

| Variant | self-cleavage |
| --- | --- |
| C4U U66C U72C U74A | 0.65 |
| C4U U69C U78C | 0.95 |
| C4U U72A U80C | 1.03 |
| A5C A13G A15U A35G U67C | 0.81 |
| A5C A13G A18U C40A U67C U78A | 0.17 |
| A5C A13G G36U A57U A64U U69C U78G | 0.04 |
| A5C A13U U25C U78C | 0.21 |
| A5C A13U U26C A28G C39A | 0.46 |
| A5C A15G A64G | 0.83 |
| A5C A15U A18G U25C U69C | 0.27 |
| A5C A15U A20G U66C G70A U72C | 0.13 |
| A5C A18C A75U | 0.83 |
| A5C A18G A45U | 0.47 |
| A5C A18G U25C U54A A57G | 0.07 |
| A5C A18G U41C U54G U74A | 0.25 |
| A5C A20C A45G U80C | 0.45 |
| A5C A20G U31A U49C U67C | 0.19 |
| A5C A20G U43C A45G U72C U78A U80C | 0.22 |
| A5C A20U U60A | 0.17 |
| A5C A28G U31A C32U U60G | 0.08 |
| A5C A35U U67C U72C | 0.2 |
| A5C A45G U51C C81U | 0.78 |
| A5C A45U U60C U72C | 0.56 |
| A5C A47U A56U U58C U72A | 0.08 |

| Variant | self-cleavage |
| --- | --- |
| A5C A56U U67A A75G U76C | 0.12 |
| A5C A57U U58A U60C C81U | 0.37 |
| A5C C11G A45G G70C A75U | 0.14 |
| A5C C11U A56C A57G U80C | 0.08 |
| A5C C11U G19U A57G C59U | 0.44 |
| A5C C12A A15U U54C | 0.81 |
| A5C C23U U41C C71U G73C U78C U80C | 0.09 |
| A5C C29U A35U U43A | 0.2 |
| A5C C32U U74C A75G | 0.51 |
| A5C C37A U51C A77G | 0.34 |
| A5C G7A A21U A64U U69A | 0.04 |
| A5C G8A G36U | 0.47 |
| A5C G8U U80C | 0.36 |
| A5C G30A A35U A64U | 0.25 |
| A5C G36A C71U A75G | 0.15 |
| A5C G52A U78A | 1.11 |
| A5C U25C U72C A75G C81U | 0.09 |
| A5C U25C U74C | 0.65 |
| A5C U26A U51C U80C | 1.04 |
| A5C U26C U76C | 0.59 |
| A5C U31C U41C | 0.72 |
| A5C U31G U67G | 0.11 |
| A5C U41A A57C | 0.25 |
